# Measured values: patent US11779649B2, “Antibodies to PMEL17 and conjugates thereof” (Novartis AG, priority 2018, dated 2023)
# T1: human PMEL17 (Homo sapiens, UniProt P40967)
# T1 construct: G-361 melanoma cell line expresses human PMEL17 at a lower level compared to the HKB11-human PMEL17 overexpressing cell line; endogenous in cells; host or cells: G-361 (human melanoma)
# T1 sequence (P40967 25-661): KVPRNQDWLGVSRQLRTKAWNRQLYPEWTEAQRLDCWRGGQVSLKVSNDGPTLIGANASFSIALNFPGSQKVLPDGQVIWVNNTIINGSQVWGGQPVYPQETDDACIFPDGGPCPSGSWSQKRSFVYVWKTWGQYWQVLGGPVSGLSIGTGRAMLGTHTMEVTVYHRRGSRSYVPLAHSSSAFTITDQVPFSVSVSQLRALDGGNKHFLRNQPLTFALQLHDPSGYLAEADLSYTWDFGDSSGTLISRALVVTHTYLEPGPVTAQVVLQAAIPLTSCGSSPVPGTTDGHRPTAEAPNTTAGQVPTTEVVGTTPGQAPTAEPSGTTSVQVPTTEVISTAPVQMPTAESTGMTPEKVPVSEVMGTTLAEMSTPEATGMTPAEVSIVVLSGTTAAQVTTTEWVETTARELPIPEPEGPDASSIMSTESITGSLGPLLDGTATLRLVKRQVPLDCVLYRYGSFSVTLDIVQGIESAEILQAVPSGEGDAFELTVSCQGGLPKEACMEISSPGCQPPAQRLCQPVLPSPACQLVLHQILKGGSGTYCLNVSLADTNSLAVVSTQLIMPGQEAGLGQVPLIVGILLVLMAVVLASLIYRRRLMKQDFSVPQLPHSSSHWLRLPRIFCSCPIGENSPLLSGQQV
# T2: mouse PMEL17 (Mus musculus, UniProt Q60696)
# T2 construct: B16-F10 (mouse PMEL17 expressing melanoma); endogenous in cells; host or cells: B16-F10 (mouse melanoma)
# T2 sequence (Q60696 24-626): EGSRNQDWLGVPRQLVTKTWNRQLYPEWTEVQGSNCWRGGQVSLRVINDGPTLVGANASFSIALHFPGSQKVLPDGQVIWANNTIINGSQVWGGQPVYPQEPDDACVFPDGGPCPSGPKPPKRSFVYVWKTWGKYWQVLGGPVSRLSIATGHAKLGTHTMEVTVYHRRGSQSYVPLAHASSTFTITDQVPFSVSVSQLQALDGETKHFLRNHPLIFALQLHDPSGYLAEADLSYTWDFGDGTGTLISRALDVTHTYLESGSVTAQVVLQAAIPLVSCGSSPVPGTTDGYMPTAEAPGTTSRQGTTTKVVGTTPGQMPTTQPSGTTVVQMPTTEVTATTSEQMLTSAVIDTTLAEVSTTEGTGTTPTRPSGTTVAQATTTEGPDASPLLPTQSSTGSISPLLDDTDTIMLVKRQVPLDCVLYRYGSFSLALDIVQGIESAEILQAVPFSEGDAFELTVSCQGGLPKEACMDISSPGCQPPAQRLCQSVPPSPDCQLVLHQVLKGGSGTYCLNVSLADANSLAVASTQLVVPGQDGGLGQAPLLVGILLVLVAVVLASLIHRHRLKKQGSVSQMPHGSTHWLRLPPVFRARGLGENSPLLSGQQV
# Legend:
# Type in all cases: binding
# human PMEL17 = biological target: T1, human PMEL17; test: Apparent affinity by FACS titration of IgGs on G-361 melanoma cell line; settings: G-361, PE-labelled detection antibody
# Method: (§1) Purified IgGs were titrated on a variety of PMEL17 expressing and PMEL17 non expressing cell lines (for control) to determine EC50 values. Cells were harvested using Accutase, adjusted to ˜4×10^6 cells/ml into FACS buffer (PBS, 3% FCS and 0.02% Na-Azide) and kept on ice to avoid internalization. 15 μl of cell suspension/well were transferred into 384 well V-bottom plates (Greiner, Cat #781280) and incubated with 15 μl of IgGs at different concentrations (most commonly from 200 to 3.5×10−3 nM) for 1 hour at 4° C., gently shaking. Following incubation, cells were washed three times with FACS buffer. After each washing step, cells were centrifuged (250×g, 5 min, 4° C.) and carefully resuspended. […] After 3 washing steps, cells were resuspended in 30 μl of FACS buffer and samples were measured using the IntelliCyt HTFC device. EC50 values were calculated using the Graphpad Prism software. […]
# (§2) The cross-specificity of the IgGs was evaluated in does response FACS on G-361 (human melanoma), HKB11-cyno-PMEL17, HKB11-rat PMEL17 and B16-F10 (mouse PMEL17 expressing melanoma) (Table 3). […]
# UACC-62 = test: FACS titration of IgGs on UACC-62 cells; settings: UACC-62, PE-labelled detection antibody
# Method: Purified IgGs were titrated on a variety of PMEL17 expressing and PMEL17 non expressing cell lines (for control) to determine EC50 values. Cells were harvested using Accutase, adjusted to ˜4×10^6 cells/ml into FACS buffer (PBS, 3% FCS and 0.02% Na-Azide) and kept on ice to avoid internalization. 15 μl of cell suspension/well were transferred into 384 well V-bottom plates (Greiner, Cat #781280) and incubated with 15 μl of IgGs at different concentrations (most commonly from 200 to 3.5×10−3 nM) for 1 hour at 4° C., gently shaking. Following incubation, cells were washed three times with FACS buffer. After each washing step, cells were centrifuged (250×g, 5 min, 4° C.) and carefully resuspended. 15 μl of detection antibody conjugated to PE (PE-conjugated goat anti-human IgG, F(ab′)2 fragment specific, 1:150 in FACS buffer; Jackson Immuno Research, #109-116-097) or Alexa Fluor (Alexa Fluor-conjugated goat anti-human IgG, F(ab′)2 fragment specific, 1:150 in FACS buffer; Jackson Immuno Research, #109-606-097) were added and samples were incubated for 45 minutes to 1 hour on ice in the dark, gently shaking. After 3 washing steps, cells were resuspended in 30 μl of FACS buffer and samples were measured using the IntelliCyt HTFC device. EC50 values were calculated using the Graphpad Prism software. […]
# PMEL17 = test: Cross-reactivity (cross-specificity profile) of anti-PMEL17 IgGs in dose response FACS; parameters: key: h/c/r/m: human/cyno/rat/mouse; h/c/r: human/cyno/rat; h/c/(m): human/cyno/mouse; h/c: human/cyno; settings: h human, c cyno, r rat, m mouse
# Method: The cross-specificity of the IgGs was evaluated in does response FACS on G-361 (human melanoma), HKB11-cyno-PMEL17, HKB11-rat PMEL17 and B16-F10 (mouse PMEL17 expressing melanoma) (Table 3). Testing on G-361 was performed using a detection antibody labelled to PE. In contrast, an Alexa-Fluor labelled detection antibody had to be used for testing the candidates on the other cell lines so as to reach detectable signals.
# IgGs were classified into several epitope groups according to their cross-specificity profiles.
# mouse PMEL17 = biological target: T2, mouse PMEL17; test: Apparent affinity by FACS titration of IgGs on B16-F10 melanoma cells; settings: Alexa Fluor
# Method: as §1, §2
EC50 (human PMEL17) [nM],EC50 (mouse PMEL17) [nM],Molecule,UACC-62 (PE) (UACC-62),Cross spe profile (based on C14 detection ab) (PMEL17)
2.5,–,"Y010429: anti-PMEL17 antibody (IgG) (antibody, V domains shown) VH: [in this place about 100 residues]AYKLSWLDLWGQGTLVTVSS VL: DIQMTQSPSSLSASVGDRVTITCRASQSISSYLNWYQQKPGKAPKLLIYAASSLQSGVPSRFSGSGSGTDFTLTISSLQPEDFATYYCQQVWYAPVTFGQGTKVEIK",Negative,h/c/r
0.3,> 100,"Y010415: anti-PMEL17 antibody (IgG) (antibody, V domains shown) VH: [in this place about 100 residues]SRLIAPWLDYWGQGTLVTVSS VL: DIQMTQSPSSLSASVGDRVTITCRASQSISSYLNWYQQKPGKAPKLLIYAASSLQSGVPSRFSGSGSGTDFTLTISSLQPEDFATYYCQQVYGSPPTFGQGTKVEIK",Negative,h/c/r
